# Experimental data reported in article PMC4336329 (PLoS ONE, 2015).
# Out of some 310,000 compounds screened, about 14,000 (4.5%) showed an effect of 50% or more. The effect is printed as a negative number. The list shows a part of the results.
# Molecular target: human ether-à-go-go-related gene (hERG) potassium channel (human, UniProt Q12809)
# Test: primary screen, population patch clamp on CHO cells stably expressing hERG
# 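Also: peak tail current of the secondary pulse compared with the same well before compound.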
# Chain of human ether-à-go-go-related gene (hERG) potassium channel (Q12809 whole entry, looked up): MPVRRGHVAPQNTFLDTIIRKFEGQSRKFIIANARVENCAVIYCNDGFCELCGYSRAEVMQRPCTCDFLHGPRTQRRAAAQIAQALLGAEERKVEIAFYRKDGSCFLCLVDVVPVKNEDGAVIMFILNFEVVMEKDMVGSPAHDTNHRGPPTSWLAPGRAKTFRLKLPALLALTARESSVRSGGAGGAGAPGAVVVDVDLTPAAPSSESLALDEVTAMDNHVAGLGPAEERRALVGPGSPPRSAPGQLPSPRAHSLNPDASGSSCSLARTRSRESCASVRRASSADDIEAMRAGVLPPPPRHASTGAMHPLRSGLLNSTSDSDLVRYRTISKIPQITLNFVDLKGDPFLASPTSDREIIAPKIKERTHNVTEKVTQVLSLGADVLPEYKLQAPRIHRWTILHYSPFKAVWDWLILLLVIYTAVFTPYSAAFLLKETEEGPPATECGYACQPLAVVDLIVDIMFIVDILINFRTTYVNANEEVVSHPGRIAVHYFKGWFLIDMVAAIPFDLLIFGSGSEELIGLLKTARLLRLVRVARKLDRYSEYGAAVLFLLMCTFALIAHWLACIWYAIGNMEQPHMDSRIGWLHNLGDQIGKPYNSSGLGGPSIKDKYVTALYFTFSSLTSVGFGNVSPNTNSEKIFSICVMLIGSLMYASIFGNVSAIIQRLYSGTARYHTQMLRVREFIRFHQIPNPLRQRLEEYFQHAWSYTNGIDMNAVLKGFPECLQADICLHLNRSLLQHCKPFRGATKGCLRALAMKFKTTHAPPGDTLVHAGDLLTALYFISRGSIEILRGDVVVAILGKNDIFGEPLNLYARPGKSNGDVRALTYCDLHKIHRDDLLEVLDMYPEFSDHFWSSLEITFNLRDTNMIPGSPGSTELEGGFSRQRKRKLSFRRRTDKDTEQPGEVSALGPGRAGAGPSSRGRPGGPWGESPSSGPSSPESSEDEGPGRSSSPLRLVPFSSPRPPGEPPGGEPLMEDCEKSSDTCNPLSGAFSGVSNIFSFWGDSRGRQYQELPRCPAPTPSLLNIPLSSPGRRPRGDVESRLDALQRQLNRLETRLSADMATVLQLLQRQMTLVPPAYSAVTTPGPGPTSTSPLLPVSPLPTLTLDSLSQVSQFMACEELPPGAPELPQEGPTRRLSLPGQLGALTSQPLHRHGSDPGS
row,SMILES,"hERG current change (%, negative = inhibition) at 10uM"
1,Cc1ccc(S(=O)(=O)Nc2nc3ccccc3s2)cc1[N+](=O)[O-],4.99%
2,N/C(=N\OC(=O)CCC1CCCCC1)c1cccnc1,-20.6%
3,Nc1nonc1-n1nnc(C(=O)N/N=C/c2ccc(OCc3ccccc3)cc2)c1CNc1ccccc1,23.9%
4,CCN(CC)C(=S)SCC(=O)c1ccc(F)cc1,-7.58%
5,Cc1ccc2cc(CN(Cc3ccco3)S(=O)(=O)c3c(C)ccc4nsnc34)c(=O)[nH]c2c1,2.82%
6,Cc1c(NC(=O)c2cc3nc(-c4ccc(Br)cc4)cc(C(F)(F)F)n3n2)c(=O)n(-c2ccccc2)n1C,-33.9%
7,O=C(CC(n1cncn1)C(Cl)(Cl)Cl)c1ccc([N+](=O)[O-])cc1 (centres unmarked),-48.8%
8,COc1ccc(NC(=O)C(C)NS(=O)(=O)c2ccc(NC(C)=O)cc2)cc1Cl (centres unmarked),-6.35%
9,Cn1cc(CN(Cc2ccccc2)C[C@@H]2CCC(=O)N2)c(-c2ccccc2F)n1,-10.4%
10,O=C(NCc1ccc(F)cc1)c1nc(-c2cccs2)no1,-5.3%
11,CCn1c(SCC(=O)N2CCCCC2C)nc2ccsc2c1=O (centres unmarked),-11.5%
12,CCOc1ccc(-c2noc(CCCC(=O)NC3CCCC3)n2)cc1OC,0.921%
13,COc1ccc(Nc2c3c(nc4ccc(C)cc24)CCC3)cc1.Cl,-78.3%
14,CCOc1ccc(C2=NNC(c3cccs3)=Nc3ccc(OCC)cc32)cc1,13.8%
15,CC1(C)CC2(C)OCCN2C(=S)N1 (centres unmarked),2.64%
16,C=CCn1c(SCC(=O)NC(N)=O)nnc1-c1cc2c(s1)CCC(CC)C2 (centres unmarked),3.79%
17,O=S(=O)(NCCCCCNS(=O)(=O)c1ccc(F)cc1)c1ccc(F)cc1,1.43%
18,COc1cccc(/C=C/C(=O)Nc2ccc3c(c2)OCCO3)c1,7.06%
19,O=c1[nH]cc(C(F)(F)F)cc1NS(=O)(=O)c1ccccc1[N+](=O)[O-],12.6%
20,CCC(C)C(=O)Nc1nccs1 (centres unmarked),17%
21,O=C(CCCCC(=O)NCc1cccs1)NCc1cccs1,6.59%
22,O=C(O)CCc1ccc(S(=O)(=O)N2CCOCC2)cc1,9.65%
23,C=CCn1c(C)nnc1SCC(=O)N1CCN(S(=O)(=O)c2ccccc2)CC1,13.1%

row,SMILES,"hERG current change (%, negative = inhibition) at 10uM"
1,CCn1nc(C)c(NC(=O)Nc2cccc(Cl)c2Cl)c1C,30.4%
2,Cc1ccc(S(=O)(=O)NCCNc2ccc([N+](=O)[O-])cc2C(F)(F)F)cc1,-6.92%
3,NC(=O)C1CCN(C(=O)COc2ccc3c4c(c(=O)oc3c2)CCCC4)CC1,9.02%
4,Cc1ccc(-c2nn(-c3ccccc3)cc2/C=C/C(=O)Nc2nccs2)cc1,10.1%
5,CCOC(=O)c1c2ccccc2[n+]([O-])n1CCO,0.676%
6,Cc1oc2c(c1C(=O)NCCCC(=O)O)CCCC2,8.67%
7,O=C(Nc1cc(S(=O)(=O)Nc2ccccc2Cl)ccc1O)c1sc2cc(Cl)ccc2c1Cl,19.3%
8,Cn1nc(C(=O)Nc2ccc(Cl)cc2)cc1C(=O)Nc1ccc(Cl)cc1,13.7%
9,Nc1ccccc1C(=O)NCCCN1CCN(c2cccc(Cl)c2)CC1,-71.4%
10,Oc1ccccc1-c1cc(-c2ccc3c(c2)OCCO3)n[nH]1,9.59%
11,CC(=O)Nc1ccc(S(=O)(=O)N2CCN(S(=O)(=O)N3CCC(C)CC3)CC2)cc1,16.9%
12,N#Cc1sc2nc3c(c(-c4ccco4)c2c1N)CCCC3,-3.21%
13,O=C(NCCCN1CCCCCC1)C1CCCN(S(=O)(=O)c2cccc3nsnc23)C1 (centres unmarked),-20.2%
14,Cc1c(NC(=O)Nc2ccccc2)cccc1[N+](=O)[O-],1.71%
15,CCN(CC)CCN1C(=O)c2cccc3cc(N)cc(c23)C1=O,-32.1%
16,CC1CCCCN1CC(=O)Nc1ccc2c(c1)OC(F)(F)O2 (centres unmarked),9.08%
17,CC(C)Oc1cccc(C(=O)C2CCCN(C(=O)c3csnn3)C2)c1 (centres unmarked),-7.27%
18,COc1cccc(CNC(=O)CCCCCn2c(=S)[nH]c3ccc(N4CCOCC4)cc3c2=O)c1,0.827%
19,NS(=O)(=O)c1ccc(CCNC(=O)Cn2c(=O)c3cccn3c3cccnc32)cc1,22.3%
20,O=C1N(C2CCCC2)C[C@@H]2C[C@@H](c3cccn3-c3ccccn3)N3CCC[C@@]123,-62.6%
21,O=c1c2ccccc2nc(SCc2cc([N+](=O)[O-])cc3c2OCOC3)n1-c1ccccc1,-6.37%
22,C=CCn1c(SCc2ccccc2C#N)nnc1-c1ccccc1O,-23.7%
23,O=C(CSc1nnc(-c2ccccc2)o1)NC1CCS(=O)(=O)C1 (centres unmarked),-4.33%

row,SMILES,"hERG current change (%, negative = inhibition) at 10uM"
1,CCOc1ccc(C(=O)N/N=C/c2c(C)[nH]c(=O)[nH]c2=O)cc1,-1.45%
2,Cc1cccc(C(=O)NCC(=O)N2CCC2)c1,2.59%
3,O=C(NCc1ccccc1)C12CC3CC(CC(Br)(C3)C1)C2,1.21%
4,COc1c(C)cc(C(=O)C2CCCN(C(=O)c3cc(C4CC4)[nH]n3)C2)cc1C (centres unmarked),-18.5%
5,CCn1c(-c2cccnc2Cl)nc2cc(Cl)c(Cl)cc21,-25.5%
6,COc1ccccc1N1C(=O)C2C3C=CC(C3)C2C1=O (centres unmarked),4.43%
7,NC(=O)Nc1ccc(Cl)cc1,9.27%
8,CC(C)(C)c1nnc(NC(=O)c2ccc3c(c2)OCO3)s1,17.4%
9,Cc1[nH]n(-c2ccccc2)c(=O)c1N=Nc1ccccc1,15.1%
10,Cc1ccc(NC(=S)Nc2ccc(S(=O)(=O)Nc3ncccn3)cc2)cc1Cl,14.7%
11,Cc1cccc(-c2nc(CS(=O)CC(=O)NCc3cccs3)c(C)o2)c1 (centres unmarked),-15.1%
12,CC1CCCC(C(=O)O)N1C(=O)CCS (centres unmarked),-14.7%
13,CC(=O)Nc1ccc(-c2nc3ccc(NC(C)=O)cc3o2)cc1,29.5%
14,COc1cc2c(cc1OC)CN(C(=O)C1CCC(=O)N(CCCN3CCOCC3)C1)CC2 (centres unmarked),13.6%
15,O=C(Nc1ccccc1)N(CCCN1CCOCC1)Cc1cccs1,-40.1%
16,O=c1c(Cc2c(F)cccc2Cl)c(O)ccn1CCc1c[nH]c2ccccc12,-10.4%
17,Cc1cc(Cl)ccc1OC(C)c1nnc(N)s1 (centres unmarked),-11.1%
18,CCOC(=O)CN=C/C(C(C)=O)=C(/C)O,33.5%
19,CC(C)(C)C(=O)COC(=O)c1cc(S(=O)(=O)N2CCCCC2)ccc1N1CCOCC1,-2.33%
20,Cc1ccccc1C(=O)NC1CCN(C(=O)N(c2ccccc2)c2ccccc2)CC1,-1.11%
21,O=C(COC(=O)c1ccccn1)c1cccc(Br)c1,7.53%
22,Cc1ccc(NS(=O)(=O)c2c(C)nc3sccn3c2=O)c(C)c1,-15.2%
23,CC(C)CC(C(=O)N1CCc2ccccc2C1)N1C(=O)c2ccccc2C1=O (centres unmarked),-50.3%

row,SMILES,"hERG current change (%, negative = inhibition) at 10uM"
1,COc1cccc(C(=O)COC(=O)C2CC3CCCC(C2)C3=O)c1 (centres unmarked),1.23%
2,Cc1nnc(NC(=O)C2CSC3(C)CCC(=O)N23)s1 (centres unmarked),1.86%
3,Nc1ccc(Cl)c(S(=O)(=O)Nc2ccccc2Cl)c1,-5.52%
4,COC(=O)CN1CC(=O)N(c2ccccc2)C1=S,20.1%
5,N#Cc1ccc(N/N=C/c2ccccc2)c([N+](=O)[O-])c1,11.1%
6,O=C(NCc1cc([N+](=O)[O-])ccc1O)c1cccnc1Sc1ccc(Cl)cc1,25.2%
7,COC(=O)c1ccccc1NC(=S)NC(=O)C1CC1,-49%
8,COc1ccc(CCNc2oc(COc3ccc(Br)cc3)nc2C#N)cc1OC,-3.83%
9,COc1ccc(C(=O)COC(=O)Cc2c[nH]c3ccccc23)c(OC)c1,4.87%
10,O=C(O)C1CC=CCC1C(=O)Nc1ccc(Oc2ccc(Cl)cc2)cc1 (centres unmarked),7.55%
11,CCOc1ccc(N(CC(=O)NCCc2ccccc2)C(=O)CCC(=O)Nc2nccs2)cc1,-18.9%
12,COc1ccc(N2C(=O)NC(=O)/C(=C/c3ccc([N+](=O)[O-])s3)C2=O)cc1,14.1%
13,O=C(Cc1ccc(N(CCCl)CCCl)cc1)NC(Cc1ccc(Cl)cc1)C(=O)O (centres unmarked),10.2%
14,CCn1c(SCC(=O)NCc2ccco2)nnc1-c1ccc(N)cc1,1.5%
15,CCCN1CN(c2ccccc2)C(=S)N(c2ccccc2)C1,15.5%
16,COCCN1C(=O)c2oc3cc(C)c(C)cc3c(=O)c2C1c1ccc(O)cc1 (centres unmarked),17.4%
17,O=C(N/C=C/c1ccc(Cl)cc1)NCc1ccc(Cl)cc1,7.66%
18,O=C(CN1CCCC1c1cccs1)Nc1cccc(S(=O)(=O)N2CCCC2)c1 (centres unmarked),-0.843%
19,COc1cc(CCC(=O)OCC(=O)Nc2cccc(S(N)(=O)=O)c2)cc(OC)c1OC,19.6%
20,COc1ccc(N(CC(=O)NC2CCCCC2)S(=O)(=O)c2c(C)[nH]c(=O)[nH]c2=O)cc1,16.2%
